According to the supplement of paper PMC12217912:
The list shows a part of the results. Sequences were assembled here from the parent chain. Values near 0.05 are background.

B1: TEV protease; numbered along this chain (parent)
chain: MGESLFKGPRDYNPISSSICHLTNESDGHTTSLYGIGFGPFIITNKHLFRRNNGTLVVQSLHGVFKVKDTTTLQQHLVDGRDMIIIRMPKDFPPFPQKLKFREPQREERICLVTTNFQTKSMSSMVSDTSCTFPSGDGIFWKHWIQTKDGQCGSPLVSTRDGFIVGIHSASNFTNTNNYFTSVPKNFMELLTNQEAQQWVSGWRLNADSVLWGGHKVFMVKPEEPFQPVKEATQL

Variants of: B1
Assay: raw area under fraction-flipped curve 0-4 h after induction (AUC4h, not background-subtracted), DNA-recorder readout of cleavage of the substrate (dimensionless); higher = more cleavage of the substrate by the protease variant
Conditions: temperature: 34 °C; time window: 0-4 h after rhamnose induction
Experimental: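 In vivo DNA recorder in E. coli TOP10(DE3) ΔrhaA at 34 °C. Each TEVp single-site mutant (parent TEVp 0) is paired with a single-site variant of the 7-mer TEVs (canonical ENLYFQ|S). The substrate sits between flexible linkers in a Bxb1-sfGFP-TEVs-SsrA fusion, so cleavage stabilises Bxb1 and speeds flipping of a recombination array, read by NGS. The value is the raw area under the fraction-flipped curve over 0-4 h after rhamnose induction (AUC4h), with ≥20 reads per time point. It is not background-subtracted; inactive controls average about 0.047.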
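Also: Bxb1 expression induced with 0.2% (w/v) L-rhamnose at OD600 near 0.5, cultures sampled hourly, flipped fraction per protease–substrate barcode pair counted by paired-end Illumina sequencing.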

| Variant | area with substrate CNLYFQS | area with substrate DNLYFQS | area with substrate GNLYFQS | area with substrate HNLYFQS | area with substrate PNLYFQS | area with substrate RNLYFQS | area with substrate TNLYFQS | area with substrate VNLYFQS | area with substrate WNLYFQS | area with substrate INLYFQS | area with substrate MNLYFQS | area with substrate FNLYFQS | area with substrate KNLYFQS | area with substrate LNLYFQS | area with substrate NNLYFQS | area with substrate YNLYFQS | area with substrate SNLYFQS |
| --- | --- | --- | --- | --- | --- | --- | --- | --- | --- | --- | --- | --- | --- | --- | --- | --- | --- |
| MGESLFKGPRDYNPISSSICHLTNESDGHTTSLYGIGFGPFIITNKHLFRRNNGTLVVQSLHGVFKVKDTTTLQQHLVDGRDMIIIRMPKDFPPFPQKLYFREPQREERICLVTTNFQTKSMSSMVSDTSCTFPSGDGIFWKHWIQTKDGQCGSPLVSTRDGFIVGIHSASNFTNTNNYFTSVPKNFMELLTNQEAQQWVSGWRLNADSVLWGGHKVFMVKPEEPFQPVKEATQL [K100Y] | 0.0487 | 0.0501 | 0.072 | 0.0893 | 0.0508 | 0.0389 | 0.0371 | 0.0572 | 0.0629 |  |  |  |  |  |  |  |  |
| MGESLFKGPRDYNPISSSICHLTNESDGHTTSLYGIGFGPFIITNKHLFRRNNGTLVVQSLHGVFKVKDTTTLQQHLVDGRDMIIIRMPKDFPPFPQKLKVREPQREERICLVTTNFQTKSMSSMVSDTSCTFPSGDGIFWKHWIQTKDGQCGSPLVSTRDGFIVGIHSASNFTNTNNYFTSVPKNFMELLTNQEAQQWVSGWRLNADSVLWGGHKVFMVKPEEPFQPVKEATQL [F101V] | 0.0328 | 0.0461 |  | 0.0505 |  |  | 0.0512 |  |  | 0.0549 | 0.0824 |  |  |  |  |  |  |
| MGESLFKGPRDYNPISSSICHLTNESDGHTTSLYGIGFGPFIITNKHLFRRNNGTLVVQSLHGVFKVKDTTTLQQHLVDGRDMIIIRMPKDFPPFPQKLKFMEPQREERICLVTTNFQTKSMSSMVSDTSCTFPSGDGIFWKHWIQTKDGQCGSPLVSTRDGFIVGIHSASNFTNTNNYFTSVPKNFMELLTNQEAQQWVSGWRLNADSVLWGGHKVFMVKPEEPFQPVKEATQL [R102M] | 0.0587 | 0.0474 | 0.0251 | 0.0594 | 0.0465 |  | 0.0491 | 0.0495 |  | 0.0474 | 0.088 | 0.0594 | 0.0618 | 0.0607 | 0.0477 | 0.0536 |  |
| MGESLFKGPRDYNPISSSICHLTNESDGHTTSLYGIGFGPFIITNKHLFRRNNGTLVVQSLHGVFKVKDTTTLQQHLVDGRDMIIIRMPKDFPPFPQKLKFRTPQREERICLVTTNFQTKSMSSMVSDTSCTFPSGDGIFWKHWIQTKDGQCGSPLVSTRDGFIVGIHSASNFTNTNNYFTSVPKNFMELLTNQEAQQWVSGWRLNADSVLWGGHKVFMVKPEEPFQPVKEATQL [E103T] | 0.0745 | 0.0723 | 0.0536 | 0.0671 |  | 0.0634 | 0.0656 |  | 0.0792 | 0.0666 | 0.0838 |  | 0.0741 | 0.0573 |  |  | 0.0625 |
| MGESLFKGPRDYNPISSSICHLTNESDGHTTSLYGIGFGPFIITNKHLFRRNNGTLVVQSLHGVFKVKDTTTLQQHLVDGRDMIIIRMPKDFPPFPQKLKFREPIREERICLVTTNFQTKSMSSMVSDTSCTFPSGDGIFWKHWIQTKDGQCGSPLVSTRDGFIVGIHSASNFTNTNNYFTSVPKNFMELLTNQEAQQWVSGWRLNADSVLWGGHKVFMVKPEEPFQPVKEATQL [Q105I] | 0.0745 | 0.0894 | 0.0675 | 0.0708 | 0.029 | 0.0714 | 0.0623 | 0.0681 |  |  | 0.07 |  | 0.0748 | 0.0411 | 0.0824 |  | 0.0572 |
| MGESLFKGPRDYNPISSSICHLTNESDGHTTSLYGIGFGPFIITNKHLFRRNNGTLVVQSLHGVFKVKDTTTLQQHLVDGRDMIIIRMPKDFPPFPQKLKFREPLREERICLVTTNFQTKSMSSMVSDTSCTFPSGDGIFWKHWIQTKDGQCGSPLVSTRDGFIVGIHSASNFTNTNNYFTSVPKNFMELLTNQEAQQWVSGWRLNADSVLWGGHKVFMVKPEEPFQPVKEATQL [Q105L] | 0.0801 | 0.103 |  |  |  |  | 0.0634 | 0.0615 | 0.0501 |  |  | 0.0613 |  | 0.0741 |  | 0.0626 |  |
| MGESLFKGPRDYNPISSSICHLTNESDGHTTSLYGIGFGPFIITNKHLFRRNNGTLVVQSLHGVFKVKDTTTLQQHLVDGRDMIIIRMPKDFPPFPQKLKFREPQEEERICLVTTNFQTKSMSSMVSDTSCTFPSGDGIFWKHWIQTKDGQCGSPLVSTRDGFIVGIHSASNFTNTNNYFTSVPKNFMELLTNQEAQQWVSGWRLNADSVLWGGHKVFMVKPEEPFQPVKEATQL [R106E] | 0.0668 | 0.0856 |  | 0.0731 | 0.0632 |  | 0.059 |  | 0.0342 | 0.0551 | 0.0732 |  |  |  |  | 0.0565 | 0.0955 |
| MGESLFKGPRDYNPISSSICHLTNESDGHTTSLYGIGFGPFIITNKHLFRRNNGTLVVQSLHGVFKVKDTTTLQQHLVDGRDMIIIRMPKDFPPFPQKLKFREPQSEERICLVTTNFQTKSMSSMVSDTSCTFPSGDGIFWKHWIQTKDGQCGSPLVSTRDGFIVGIHSASNFTNTNNYFTSVPKNFMELLTNQEAQQWVSGWRLNADSVLWGGHKVFMVKPEEPFQPVKEATQL [R106S] | 0.0663 | 0.0895 | 0.0587 | 0.0657 | 0.0662 |  |  | 0.0698 | 0.0638 | 0.0706 |  | 0.0571 | 0.069 |  | 0.0627 | 0.0624 | 0.0657 |
| MGESLFKGPRDYNPISSSICHLTNESDGHTTSLYGIGFGPFIITNKHLFRRNNGTLVVQSLHGVFKVKDTTTLQQHLVDGRDMIIIRMPKDFPPFPQKLKFREPQRLERICLVTTNFQTKSMSSMVSDTSCTFPSGDGIFWKHWIQTKDGQCGSPLVSTRDGFIVGIHSASNFTNTNNYFTSVPKNFMELLTNQEAQQWVSGWRLNADSVLWGGHKVFMVKPEEPFQPVKEATQL [E107L] | 0.0504 | 0.0747 |  |  |  |  |  | 0.0464 | 0.0552 |  |  |  |  |  | 0.0635 |  |  |
| MGESLFKGPRDYNPISSSICHLTNESDGHTTSLYGIGFGPFIITNKHLFRRNNGTLVVQSLHGVFKVKDTTTLQQHLVDGRDMIIIRMPKDFPPFPQKLKFREPQREELICLVTTNFQTKSMSSMVSDTSCTFPSGDGIFWKHWIQTKDGQCGSPLVSTRDGFIVGIHSASNFTNTNNYFTSVPKNFMELLTNQEAQQWVSGWRLNADSVLWGGHKVFMVKPEEPFQPVKEATQL [R109L] | 0.0696 | 0.0724 |  | 0.0615 | 0.0654 | 0.0609 | 0.0646 |  | 0.0558 | 0.0632 | 0.0614 | 0.0594 |  | 0.0617 | 0.0514 | 0.0741 | 0.0641 |
